Measurements as given in EP4759829A1 (The University of Tokyo, dated 2025).

T1: human HVEM extracellular domain recombinant protein (Sino Biological Japan Inc. 10334-H08H) (human, UniProt Q92956 39-202)
T1 construct: extracellular domain; Bought protein
T1 sequence (looked up): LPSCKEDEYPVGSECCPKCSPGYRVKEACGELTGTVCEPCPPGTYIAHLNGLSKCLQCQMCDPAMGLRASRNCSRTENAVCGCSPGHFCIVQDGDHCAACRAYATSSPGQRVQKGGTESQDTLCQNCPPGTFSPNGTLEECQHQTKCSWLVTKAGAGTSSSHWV


Molecular target: T1, human HVEM extracellular domain …
Assay: SPR (BIAcore T200), antibody captured by anti-human IgG on CM5 chip, HVEM extracellular domain as analyte

Row | Kd [nM] | Binder
1 | 102 | humanized anti-human HVEM antibody (HV80) (Fc fusion, also called humanized VHH-3_hIgG4Fc) EVQLVESGGGLVQPGGSLRLSCAASGSIGSIHRWDWYRLCPGKQREWVATLNSEGGPTYADSVEGRFTISRDNSKNMVYLQMNSLRPEDTAVYRCSARTVPFEYWGQGTLVTVSSGPP[sequence of human IgG4 Fc omitted]
2 | 67 | alpaca-human chimeric anti-human HVEM antibody (VHH-3_hIgG4Fc) (Fc fusion) QVQLVESGGGSVQPGGSLRLSCAASGSIGSIHRWDWYRLCPGKQREWVATLNSEGGPTYADSVEGRFTISRDNAKNMVYLQMNSLKPEDTAVYRCSARTVPFEYWGRGTQVTVSSGPP[sequence of human IgG4 Fc omitted]
